Data taken from the supplement of paper PMC12632987.
The full ranking holds about 4,500 sequences; the median of “median log2 fold change of GCK-ALFA target abundance (FLAG IP / Myc IP barcode read proportion)” is about 0.078, and the lowest 2% start at about -0.6. The list shows a part of the results.

B1: GBRAP_9_7131 (protein)
chain: REELVEKLAEIVKEMIEDLKEAIPELTEEQAEKFKKRVEELKKELLADKSATKEEIAERFKKLVKEIRDEVEKIVSPELAKIADAIALTAIEEIDEAVEE
B2: GBRAP_160_4742 (protein)
chain: KEELEKLKKEIEEIFKEGIELLKESEKEEALTIVRGIMGDVIMEVMSSEAASDELEEKIAEIADKAIEEVEKNKDAPIEKVIEIVEKAREEILKLIEEEI
B3: GBRAP_160_4538 (protein)
chain: NPKVEELIKDIDEEKEFIKSLVDEISVEELINAIKVEVGSLILYGEELGVISDELADKFDEIVEETIKKLKENENASNEEKKEIINEAYEKMKKALKESA
B4: GBRAP_139_3722 (protein)
chain: AALEAAIAEARALVAEHRDDLELLARKLAELIASVDDDTALAIARAAGEALKDWSWEEWERFIELLEEELKKLGLDEDTILAIAGELEAVAAKHLIEKEK
B5: GBRAP_160_4766 (protein)
chain: KEELKELLKEVKEEFDEAIEMLKESPASEAPTIIAGTMGSVIMLVESSPAVSEELEEEIAEIMDEAEARAAALKDAPVEEHIKLLEEAREKVTELIEKAI
B6: GBRAP_83_6955 (protein)
chain: MITVVASSKPESIRSSVEAAIDLHKEYGEKVEIEILLTKENAPAALEALKKLIDAGVEAEVILVTKESDKEAAEKLAEEIKKYAKEKGVNVKVELIVEEE
B7: GBRAP_160_3998 (protein)
chain: SEKLAALKAEIAAILAETLELARGEDAAERLAVVRVMGGQILLTLEESGIVSDEALAAVDAILDATAAEVAANPDLTDAELAALLDATLARINAVLEEHS
B8: GBRAP_128_3513 (protein)
chain: SMAAAVAQAEALMAAIGAADAATAAALTAELVDLIASADPETAAAIADKAIELLPTLSAEKLDVVADTLRARRPALDPEKANLVADIEVEALNLAEELEE
B9: GBRAP_160_4233 (protein)
chain: SEVVEKLVEIFREEFLEALELIKGESEEEKKVILDVTVGRIILEAEEIEGTTDEMEEVVDKMAEKMAKELLKASDKSEEEKRALIEKKAAELRKELEKLA
B10: GBRAP_14_3769 (protein)
chain: MEEKIKILEEAAAEVVALLAELAPEKAAAFAAAVAAITAEAIERIKETGDAEEVMEEAQARLVAAITEILAGQPAETVAQAQAVVQVTFGQAILEIDELE
B11: GBRAP_80_6803 (protein)
chain: AEERLAAALAEIEALDPELAERVRRIIELARELGVPVETLAEYAEAIAELLKVDKEEARELVDELEELLEEERERGDTANAEATLRVYAGEALLKVEELE
B12: GBRAP_160_3978 (protein)
chain: SEEIEKLKKEIKELAEEAKELIEGESYEERLTIVRVMFGEILMLLMSNENVSDETEEEVAKVGDETIAYLEANPDLTEEEIKELIKEAEKKIFEILEKNE
B13: GBRAP_39_5703 (protein)
chain: TAEEEAEETFSYLEALGAKYAVERGLDMEEVRRETERLAEEVIARHPELAPLVRELLALARERGDTAVLAAYGLLLRAREGEPLEKIRRDMELLIAHLKS
B14: GBRAP_160_4369 (protein)
chain: SSALKELAEEIEELREEFEEEAKDLSPAEVVQLSLGVLAEVAALVWENEAVSEETEDKIMEIIDAARAELRANADAPPEEIVAITLEAFDKIIELVKEEI
B15: GBRAP_16_4996 (protein)
chain: DELLALTEGAAEFAEQIADALEGGDPELVKLAKELAKELKRAAKLIKEGGPKEEILKELERALKLAEELAKKLAKTDAEGAAAAKTLADRIKEAIKLAKK
B16: GBRAP_52_6003 (protein)
chain: MEEKAKELAEKILAAALAGDWDKARALLKEVAATKDLEFIRKVAEELAKLAKTKPLEEDERLVRLADLFEDVLLEAGVPEEEALLAEGIILAGIAEGHAA
B17: GBRAP_117_2597 (protein)
chain: SATEEEAKKLVEEMVKLIKEAIEKQKKLSPEEAEKLRKETLEKLTKMVAELLKLVDFDTLEELFAEALKPLTPEEQVEAYILFYEALAEAEERRKKEEEE
B18: GBRAP_160_4515 (protein)
chain: SASLEAVLKDIDEAREEIKEVIEEGDVEAAIITADVEFGEIIMDLAEDENASDEAEDAAAEIRDKLVEELKEAKDASVEERKEIVDEKAEELKEKLKELF
B19: GBRAP_125_2966 (protein)
chain: ATEEELADLRRLALALGLSEEEAEEAAELARASSIRGTLYAIFAGLGYDELAEAVAEITEEEAREVLRATAAFIEAHPDATPEEVVAHALELAKAALAKR
B20: GBRAP_128_3155 (protein)
chain: STEEKVEETKKLLEKIKNSSLEEVPALAEKIVELIKNSTDEEAEAIADVIEEKIGELSEEKLDILADVFRKKRPELSPEKANIAAGMEVDAYNAKLEKDE
B21: GBRAP_184_5202 (protein)
chain: AIVERTIEFENEEELKEKLKELLEELKGFKGTVYIHVEAPEITEEMAKLLIEFVKEIKENGYATEIIVDIEGEVSEEVRDLLLDEFAKIGAKVVIALSEE
B22: GBRAP_52_6288 (protein)
chain: SEERVRAVADEIVELIRAGDLEGALALARQFVEEASLEEVLRLGELLIERSAELPKEKLDLAWEVVEELARGIEERFGAEEEADILEARAAAAIYAALQA
B23: GBRAP_184_5317 (protein)
chain: EVIHKVIEVETEEEAKKKLEEVREEVKKTGKKYLVTIELKNPTKELVKTVAEEIKKMKEEGLPVEFIVEVPEDVSEELADFAIEEFDKAGAKVVLAIPDE
B24: GBRAP_52_5851 (protein)
chain: MEEEAKKIAKELVKLKLAGKEEELEKKIKEIVETKSEEEILKILEELAKLAKTATPEEVEAIVETAIKLSDIAEEAGFDEWELSAAEADVGKAAYKNLQK
B25: GBRAP_52_5976 (protein)
chain: MEEEARKIAEEIVKLLLEGKEEEAEKLIKEVVENKSEEFIKMVLEELARMAKTADAETIDAIVEGALMLGDEALEAGFDEAEVDDGVARVVAAAVAALAA
B26: GBRAP_128_3196 (protein)
chain: VDPAAVAELRALAERVIATKSDEAIAAFAAAIAAALRAGRIDLDTLEEIVAALGEGLDADTLARVERALRAALADVGPEALATALGTLGEAIWEKLEEEE
B27: GBRAP_11_2666 (protein)
chain: KKEAYKELAELAKKLAEAVKKLIEEGIDNEELLKEAEELLKKLAKLAKEKADEATQKEVEDLKEIWEEMLKDKENRLEYAKQLLAAARVLEGNFLLEADE
B28: GBRAP_83_6989 (protein)
chain: AEKIVVAANKDNIEEAVDIVIDLTKEEGYDVELEIIVDKESLEKVKEAVKRLAEAGVETKITILAEGFTEEEAEELKEELEKIAKEAGVNIEIEVHIIEP
B29: GBRAP_74_6542 (protein)
chain: MHPKIKAALEAAEAGDVEKLVEILAEMTDEEIAEMTSEQLLKIFKTIEENFDTLTDEQKEKVADFVARVADVHDFRDLSPEALKAFQAVLAKLYQWELEK

target: GABARAP, O95166; experiment: median log2 fold change of GCK-ALFA target abundance (FLAG IP / Myc IP barcode read proportion) (log2 ratio); each designed protein is fused to an ALFA-tag nanobody in HEK293 cells to bring the named protein to FLAG-tagged glucokinase (GCK); Myc marks an untargeted standard; higher = target protein stabilised (more abundant); details: target protein: 3xFLAG-MCP-GCK-ALFA reporter; HEK293 landing pad (RPLP)
Method in brief: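 Binders fused to an ALFA nanobody were recombined as a library into HEK293 landing-pad cells, which were induced with 2 μg mL^−1 doxycycline and then transfected to express a FLAG-tagged target and a Myc-tagged standard. After 48 h, circular RNA barcodes recovered by anti-FLAG and anti-Myc immunoprecipitation of lysates were reverse transcribed, amplified and sequenced. Each binder's target abundance is the median log2 ratio of FLAG to Myc barcode read proportions, from barcodes present at ≥10^−7 in both replicates, binders carrying ≥3 barcodes per replicate, a 10^−6 pseudocount and pooled replicates.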

Chain of GABARAP, O95166 (O95166 whole entry, the tested form may be a part): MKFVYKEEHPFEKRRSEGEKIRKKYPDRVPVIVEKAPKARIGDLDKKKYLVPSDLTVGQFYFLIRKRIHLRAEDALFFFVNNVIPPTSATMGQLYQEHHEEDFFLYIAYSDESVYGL

| Binder | median log2 fold change |
| --- | --- |
| B1 | 0.142 |
| B2 | 0.15 |
| B3 | -0.26 |
| B4 | -0.357 |
| B5 | 0.275 |
| B6 | -0.00594 |
| B7 | -0.533 |
| B8 | 0.00691 |
| B9 | -0.402 |
| B10 | 0.0783 |
| B11 | -0.212 |
| B12 | 0.206 |
| B13 | 0.229 |
| B14 | -0.0912 |
| B15 | 0.528 |
| B16 | 0.176 |
| B17 | 0.0608 |
| B18 | 0.171 |
| B19 | -0.481 |
| B20 | 0.217 |
| B21 | -0.159 |
| B22 | 0.0151 |
| B23 | 0.132 |
| B24 | -0.231 |
| B25 | -0.535 |
| B26 | 0.111 |
| B27 | 0.297 |
| B28 | -0.0134 |
| B29 | -0.0821 |
